Results: the RNAGym collection of RNA variant scans (doi:10.1093/nar/gkz1192)
Read counts are not given, so values of variants with three or more changes are uncertain.

B1: CPEB3 Ribozyme (parent)
chain: UAACAGGGGGCCACAGCAGAAGCGUUCACGUCGCAGCCCCUGUCAGAUUCUGGUGAAUCUGCGAAUUCUGCUGUAUAUCUC

Variants of: B1
Assay: self-cleavage, relative activity (ratio to wild type); higher = more cleavage; in vitro, sequencing
Method in brief: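 Relative activity was defined as the cleaved/total read fraction for a variant divided by the same fraction for the unmutated ribozyme. CPEB3 self-cleaving ribozyme libraries were made by rounds of error-prone PCR, barcoded, and transcribed in vitro with T7 RNA polymerase for 5 hours at 37°C, and cleavage ran through transcription plus a 15 min DNase I step before EDTA. Illumina sequencing of template-switched reverse transcripts gave the reads, and DNA sequencing mapped the barcodes. Averages come from three batches, using variants with at least 5 reads.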

Variant | self-cleavage
A45C U48C U51C A77C | 0.03
A45C U48C U66C U67G | 0.15
A45C U49C U54C U74C | 0.25
A45C U51A U66C U67C | 0.15
A45C U51C A64G | 0.21
A45C U54C A65G | 0.16
A45C U67A U78A U80A | 0.4
A45G A47G A56G U60A U78C | 0.24
A45G A47G A57U U66A U80A | 0.07
A45G A47G A64U | 0.09
A45G A47G A77G | 0.25
A45G A47G U60G | 0.49
A45G A47G U66C | 0.12
A45G A47U A56G U74C | 0
A45G A47U U49C A57G U78C | 0.2
A45G A56G A57G U60A U78C | 0.21
A45G A56G U60C | 0.89
A45G A56U C59G A64U U72C | 0.11
A45G A56U U60C U72A | 0.76
A45G A56U U66C U72C | 0.22
A45G A57G U58A U67C U72C | 0.28
A45G A57G U66C | 0.43
A45G A57G U67A | 0.29
A45G A57U U60G U66C | 0.1

Variant | self-cleavage
A45G A64G U72A | 0.57
A45G A64U A77U | 0.16
A45G A64U U74C | 0.35
A45G A65G G73A | 0.79
A45G C50U U54G | 0.37
A45G G46U U58C | 0.24
A45G G52A A75U | 0.83
A45G G53C U54A U66C | 0.56
A45G G63A A64C | 0.36
A45G U48A U67C | 0.12
A45G U48C A56G | 0.19
A45G U48C A56U | 0.18
A45G U48C A64G | 0.16
A45G U48C A65U U72A U78C | 0.09
A45G U48C U51A A65G U67A U72C | 0.36
A45G U48C U58G U67C | 0.11
A45G U49A U51C U60C A65G | 0.27
A45G U49C A56G A65G U69C A75G | 0.07
A45G U49C A65G U76C | 0.14
A45G U49C U51G U60A G70A C81G | 0.18
A45G U49C U54G A57G G61U | 0
A45G U51A U72C U78A | 1.15
A45G U51C U66C A77G | 0.24
A45G U51C U76C C81U | 0.68

Variant | self-cleavage
A45G U51G U54C U72C | 0.38
A45G U51G U69A U72A | 0.48
A45G U54A A56G U58C U67C U69C G70A | 0.17
A45G U54A C62A U69A | 0.35
A45G U54A U72C | 1.21
A45G U54C A57G U80A | 0.4
A45G U54C U60A U69C | 0.22
A45G U54C U67C C71G U72G U76A | 0.07
A45G U58A A64G U69C U80C | 0.15
A45G U58A U76G | 0.27
A45G U58C A64G | 0.17
A45G U60A U74C | 0.98
A45G U60C C62U U78A | 0.08
A45G U60C C71G | 0.27
A45G U66C U72C A77G | 0.26
A45G U69C U72G | 0.44
A45G U72C U78C | 1.08
A45G U74A C81U | 1.15
A45U A47G G63U U78C | 0.26
A45U A47G U51A A57G | 0.17
A45U A56G G73A U80A | 0.76
A45U A56U A57G U60C | 0.14
A45U A57G U69A | 0.18
A45U A75U U80A | 0.59

Variant | self-cleavage
A45U G53A U60C U67A | 0.34
A45U G63U U66C A75G | 0.1
A45U G70A U72C U80C | 0.13
A45U U48C U58A U76G | 0.04
A45U U49C A56U | 0.25
A45U U49C U58C A65G U76G | 0.1
A45U U49C U78C | 0.12
A45U U51A A65G U76C | 0.23
A45U U51A G53A U58G | 0.06
A45U U51A U58C | 0.17
A45U U51C A64U U72C U74G | 0.15
A45U U54C U69A | 0.12
A45U U58A U60A | 0.26
A45U U58C A77G | 0.42
A45U U60A U66C | 0.33
A45U U60A U69C | 0.47
A45U U60A U74C | 1.22
A45U U60C A64U U74A A75C | 0.23
A45U U60C U67A U76C | 0.14
A45U U66A C68A | 0.3
A45U U66C U67C | 0.08
A45U U66C U76C A77G | 0.05
A45U U66C U78C | 0.21
A45U U69A A77U | 0.34

Variant | self-cleavage
A45U U72A U74C | 0.38
A45U U72A U74C A75G | 0.19
G46A A47G G63U A77G | 0.57
G46A A57G U58A U67C | 0.15
G46A U49A U78A | 0.24
G46A U54C U67C U72A | 0.07
G46C A47G C68A U72C | 0.11
G46U A57G U80C | 0.21
G46U A65G U74C | 0.15
G46U U49A U54C U60C | 0.15
G46U U54A A64U | 0.17
A47C U49C U69A U80A | 0.09
A47C U60C A75U | 0.19
A47G A56G A64G | 0.73
A47G A57G C59A | 0.21
A47G A65G U66C U72G | 0.1
A47G A75G U78C | 0.67
A47G C62U U72A | 0.35
A47G G53C U58C G63A | 0.57
A47G G55U A75G | 0.48
A47G G70U U72C | 0.41
A47G U48A U67C | 0.18
A47G U48C A65G U67C | 0.25
A47G U48C G55C | 0.2

Variant | self-cleavage
A47G U48C U51A | 0.23
A47G U48C U51C | 0.15
A47G U48C U54A | 0.42
A47G U48C U54C | 0.17
A47G U48C U60C | 0.27
A47G U49A A57G | 0.23
A47G U49A U60C U69A | 0.11
A47G U49A U69A U80C | 0.1
A47G U49C G53A | 0.44
A47G U49C G63U | 0.25
A47G U49C U51C G52C A65G U72G | 0
A47G U49C U54C A75G | 0.1
A47G U49C U60C | 0.17
A47G U51A U58A A64U | 0.11
A47G U51C A56G A65G A77G | 0.28
A47G U51G U74C | 1.08
A47G U54A G61A | 0.82
A47G U54A U69A U80A | 0.24
A47G U54C U69C | 0.45
A47G U54G U69A U76C | 0.2
A47G U58A U72A | 0.4
A47G U58C U67C U72A A77G | 0.16
A47G U60A A77G | 0.47
A47G U60A U72C | 0.57

Variant | self-cleavage
A47G U60C A64U | 0.34
A47G U60C U69A U76C | 0.33
A47G U66A G70A | 0.86
A47G U66C U72C | 0.51
A47G U66C U78C | 0.2
A47G U67C C71U C79U | 0.16
A47G U69A U76C | 0.86
A47G U69C G73A A77G | 1.09
A47G U69G U80C | 0.81
A47U A56C U67C C79A | 0.06
A47U A56G U67C | 0.45
A47U A57G C59U | 0.46
A47U A57G U60A G63A | 0.14
A47U A64U U74C | 0.2
A47U G53C U78C | 0.29
A47U U48A U78C | 0.38
A47U U49C A56G | 0.53
A47U U49C U80C | 0.52
A47U U54C U72A | 0.28
A47U U60C A65G | 0.14
A47U U69A U74C A75U | 0.22
A47U U72A A75U | 0.45
A47U U72C A75G | 0.59
